# Measured values from PubChem BioAssay AID488969 (Vanderbilt High Throughput Screening Facility, 2010).
# The full ranking holds about 110,000 compounds; the median of “z-score” is about -0.1, and the highest 2% start at about 2. This is one part of the list. Active and inactive are the calls of the source.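 How the source made its calls: active means z-score in the third read window above 3 or below -3; inactive means the rest.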
# Biological target: Metabotropic glutamate receptor 8 (Rattus norvegicus) (UniProt P70579)
# UniProt P70579, sequence (P70579 whole entry, looked up): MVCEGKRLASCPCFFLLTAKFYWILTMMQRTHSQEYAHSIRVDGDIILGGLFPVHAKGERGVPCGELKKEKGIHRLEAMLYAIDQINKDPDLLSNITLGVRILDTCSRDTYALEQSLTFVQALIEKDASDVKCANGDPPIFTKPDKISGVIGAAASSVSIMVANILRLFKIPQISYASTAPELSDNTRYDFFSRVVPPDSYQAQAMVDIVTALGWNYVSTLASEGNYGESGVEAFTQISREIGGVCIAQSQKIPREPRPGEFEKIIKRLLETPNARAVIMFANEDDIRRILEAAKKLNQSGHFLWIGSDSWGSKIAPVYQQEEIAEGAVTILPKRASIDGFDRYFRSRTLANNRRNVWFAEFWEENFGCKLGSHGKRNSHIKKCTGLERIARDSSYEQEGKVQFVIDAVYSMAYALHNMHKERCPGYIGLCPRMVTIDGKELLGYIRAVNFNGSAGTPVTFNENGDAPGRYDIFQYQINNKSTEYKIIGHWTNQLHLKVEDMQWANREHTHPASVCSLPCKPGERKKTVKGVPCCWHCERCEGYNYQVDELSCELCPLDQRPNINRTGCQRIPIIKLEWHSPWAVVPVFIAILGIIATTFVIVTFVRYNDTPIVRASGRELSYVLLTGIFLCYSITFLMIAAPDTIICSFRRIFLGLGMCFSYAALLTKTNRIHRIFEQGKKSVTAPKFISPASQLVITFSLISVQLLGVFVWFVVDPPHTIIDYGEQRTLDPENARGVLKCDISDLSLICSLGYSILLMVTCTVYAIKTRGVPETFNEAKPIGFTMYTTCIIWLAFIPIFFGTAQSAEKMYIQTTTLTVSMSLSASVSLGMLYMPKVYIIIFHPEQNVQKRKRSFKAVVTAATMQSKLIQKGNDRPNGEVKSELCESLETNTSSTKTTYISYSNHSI
# Experiment: rat mGluR8 modulators via GIRK flux, primary screen, cell-based, thallium flux, HTS (AID 488969)
# Settings: HEK293 rat mGluR8, GIRK (G protein-gated inwardly rectifying potassium channel) thallium flux, FluoZin2; at 10 µM; stronger effect = higher value; submaximal glutamate (EC20) added with thallium
row,SMILES,z-score
1,CN(C)CCCCOc1cccc(Br)c1,0.476
2,CC(C)NC(=O)NC(=O)COc1cccc2c1OC(C)(C)C2,-0.0245
3,O=C(Nc1cnc2ccccc2c1)C1COc2ccccc2O1 (stereo not given),0.17
4,Nc1ccc(S(=O)(=O)NNC(=O)C(=O)NNc2ccccc2)cc1,-0.874
5,CCOC(=O)N1CCN(C(=O)c2ccc3c(=O)n(CCc4ccccc4)c(=O)[nH]c3c2)CC1,-0.463
6,CC1(C(=O)NC2CCCCCCC2)CCC(=O)N1Cc1ccco1 (stereo not given),-0.119
7,CCCCS/C(=C(/C#N)C(N)=O)c1cc2c([nH]1)CCCC2,-1.6
8,CCN(CC)CCNC(=O)C1CCN(S(=O)(=O)N2CCCCC2)CC1,-0.146
9,Cc1ccc(C2=[N+]([O-])C(C)N(O)C2(C)C)o1 (stereo not given),0.109
10,CCc1c(C)sc(NC(=O)c2cc(-c3ccc(OC)c(OC)c3)on2)c1C#N,0.139
11,COc1cc(S(=O)(=O)NC(C)C)ccc1Cl,-0.326
12,Cc1ccccc1NC(=O)CSc1nc(N)c(C#N)cc1C#N,-0.492
13,COc1ccc(CN(CCC(c2ccccc2)c2ccco2)C(=O)c2ccco2)cc1 (stereo not given),-0.324
14,Cc1cc2ncn(-c3ncnc4scc(-c5ccccc5)c34)c2cc1C,-0.722
15,CCOC(=O)c1c[nH]c2c3c(ccc2c1=O)CCCC3,-0.00312
16,CCC(=O)N(Cc1ccccc1)c1ccccn1,-0.1
17,O=[N+]([O-])c1ccc(N/N=C2/CCCCC2c2ccccn2)c([N+](=O)[O-])c1 (stereo not given),-0.955
18,Clc1cccc(Cl)c1CSc1cc2c(nn1)-c1ccccc1CC2,-0.379
19,Cc1ccccc1OCC(=O)Nc1ccc(S(=O)(=O)Nc2ccccn2)cc1,0.014
20,COc1ccc(-c2cc(C(=O)Nc3c(C)nn(Cc4ccccc4)c3C)no2)cc1,-0.433
21,CCOc1c(N2CCCCC2)c(=O)c1=O,-0.206
22,COc1cc(OC)cc(C(=O)N[C@H](C(=O)OCC(=O)Nc2ccc(C(C)C)cc2)C(C)C)c1,-0.245
23,Cc1onc(-c2ccccc2Cl)c1C(=O)Nc1ccc2c(c1)OCO2,0.151
24,CN(C)c1nc(OCC(=O)NC(C)(C)C)nc(N(C)C)n1,-0.142

row,SMILES,z-score
1,O=[N+]([O-])/C(=C\Nc1ccccc1)S(=O)(=O)c1ccccc1,-0.218
2,CCCCOC(=O)c1ccc(NC(=S)NC(=O)c2c(Cl)cnn2C)cc1,active: 11.2
3,Cc1ccc(Cn2ncc3c(N4CCN(c5ccccc5C)CC4)ncnc32)cc1,0.00301
4,O=C(NCC1COc2ccccc2O1)c1ccccc1 (stereo not given),0.298
5,CSc1nc(NCc2ccco2)c2c3c(sc2n1)CN(C)CC3,-0.494
6,COc1cccc(C(=O)NNC(=S)NC2CCCCC2)c1,-0.369
7,COc1ccc(C(=O)N(CN2CCCC2=O)c2ccc(C)cc2)cc1,0.00848
8,Cc1ccc(-c2nc3ccccc3o2)cc1NC(=O)c1ccc2c(c1)OCO2,-0.198
9,NC(=O)CSCc1nc2ccccc2s1,-0.12
10,Clc1ccccc1/C=N/NC1=Nc2cccc3cccc1c23,-0.327
11,Cc1cc(C)c(NC(=O)/C=C\C(=O)O)c([N+](=O)[O-])c1,-0.0766
12,CCOC(=O)c1sc(NC(=O)c2cc(-c3ccc(C)cc3)nc3ccccc23)c(C#N)c1C,-0.0507
13,COc1ccc(CCNC(=O)CCn2c(=O)[nH]c3cc(OC)c(OC)cc3c2=O)cc1OC,0.0203
14,COc1cc(OC)cc(C(=O)NC(=S)Nc2cccnc2)c1,0.0131
15,CCOC(=O)NC(NC(=S)Nc1ccccc1[N+](=O)[O-])C(Cl)(Cl)Cl (stereo not given),-0.166
16,COc1cccc(NC(=O)COC(=O)c2ccc(S(=O)(=O)NCc3ccco3)cc2)c1,0.212
17,Cc1nn(C(=O)c2ccco2)c(C)c1Sc1ccc(Cl)cc1,-0.125
18,N#Cc1nc(-c2ccco2)oc1NCc1ccc(F)cc1,0.442
19,COCCNC(=O)C(C)N(c1ccc(OC)cc1)S(C)(=O)=O (stereo not given),-0.193
20,Cc1cccc(N(CC(=O)N2CCCC2)S(=O)(=O)c2ccccc2)c1,-0.418
21,Cc1ccc(Sc2ccc(C(=O)NC(C)C)cc2[N+](=O)[O-])cc1,-0.167
22,COc1ccc(Cn2cccc(NC(=O)Nc3cccc(C#N)c3)c2=O)cc1,0.0526
23,Cc1ccc(C(=O)N/C(=C\C=C\c2ccccc2)C(=O)NCc2ccco2)cc1,-0.239
24,CNC(=O)CN(C)S(=O)(=O)c1ccc(OC)c(Cl)c1,0.24

row,SMILES,z-score
1,COc1ccc(Cl)cc1C(=O)NNC1CC(=O)N(Cc2ccc(Cl)cc2)C1=O (stereo not given),-0.185
2,CCOC(=O)C1CCN(c2nc3ccccc3nc2C(C#N)C(=O)OC(C)C)CC1 (stereo not given),0.135
3,Cc1ccc(S(=O)(=O)/C=C2\NC(=O)CS2)cc1,0.0347
4,NC(=O)CSc1ccc(Br)cc1,-0.25
5,COC(=O)Nc1ccc(S(=O)(=O)N2CCN(C)CC2)cc1,-0.00413
6,O=C(Nc1ccc2c(c1)OCO2)c1sc2cc(Cl)ccc2c1Cl,-0.166
7,CCCN(CCC)S(=O)(=O)c1ccc(C(=O)N2CCCc3ccccc32)cc1,-0.607
8,CS(=O)(=O)N(CC(=O)NCc1ccccn1)Cc1ccc(Cl)cc1,0.0464
9,Cc1ccc(-c2cc(C(=O)Nc3sc4c(c3C(=O)NCc3ccco3)CCC4)[nH]n2)c(O)c1,0.202
10,O=C(CNC(=O)c1ccc(Cl)cc1)NCC(F)(F)F,-0.0227
11,O=C(O)CCCC(=O)NS(=O)(=O)c1ccc(Cl)cc1,-0.379
12,Cc1ccc(C(=O)COC(=O)c2ccc3c(c2)C(=O)N(c2cccc4ncccc24)C3=O)cc1,0.247
13,COc1ccc(OC)c(NC(=O)c2cccnc2Sc2ccccc2)c1,-0.336
14,COC(=O)c1[nH]c2cc(OC)ccc2c1NC(=O)c1ccc2c(c1)OCO2,0.0807
15,Cc1nn(C)cc1CNC(=O)c1ccccc1Br,0.221
16,COc1cc(C(=O)Nc2ccc(Oc3ncnc4sc(-c5ccccc5)cc34)cc2)cc(OC)c1OC,0.344
17,COc1ccccc1Nc1nc(N)nc(CSc2nc(C)cc(C)n2)n1,1
18,COc1ccccc1NC(=O)C(=O)N/N=C(\C)CC(=O)Nc1ccc(OCc2ccccc2)cc1,-0.235
19,CCOC(=O)c1c(NC(=O)CSc2nnc(-c3ccco3)o2)sc(C)c1C,-0.799
20,CCOC(=O)C1=C(CC)Nc2ccccc2N=C1NC(=O)Cn1cnc2ccccc2c1=O,-0.141
21,CC1=C(OC(=O)c2ccccc2)C(C)(C)C(c2ccccc2)OC1=O (stereo not given),-0.174
22,Cc1sc(/N=C/c2c(O)ccc3ccccc23)c(C#N)c1C,0.123
